Reference: US20210163599A1 (AVACTA LIFE SCIENCES, published 2021)

B1: AVA04-251 AZ (Fc fusion)
chain: IPRGLSEAKPATPEIQEIVDKVKPQLEEKTGETYGKLEAVQYKTQVLAREGRQDWVLSTNYYIKVRAGDNKYMHLKVFNGPWVPFPHQQLADRVLTGYQVDKNKDDELTGFAAA[human IgG1 Fc skipped]
notes: Affimer fused to the Fc hinge by AAA only
B2: AVA04-251 AG.3 (Fc fusion)
chain: IPRGLSEAKPATPEIQEIVDKVKPQLEEKTGETYGKLEAVQYKTQVLAREGRQDWVLSTNYYIKVRAGDNKYMHLKVFNGPWVPFPHQQLADRVLTGYQVDKNKDDELTGFAAAGGGGSGGGGSGGGGSIPRGLSEAKPATPEIQEIVDKVKPQLEEKTGETYGKLEAVQYKTQVLAREGRQDWVLSTNYYIKVRAGDNKYMHLKVFNGPWVPFPHQQLADRVLTGYQVDKNKDDELTGFLQAAAAAAGGGGSGGGGSGGGGSGGGGS[human IgG1 Fc skipped]
notes: Two Affimers in line at the N-terminus of human IgG1 Fc; four Affimers in the Fc dimer
B3: AVA04-251 BS (Fc fusion)
chain: IPRGLSEAKPATPEIQEIVDKVKPQLEEKTGETYGKLEAVQYKTQVLAREGRQDWVLSTNYYIKVRAGDNKYMHLKVFNGPWVPFPHQQLADRVLTGYQVDKNKDDELTGF[human IgG1 Fc skipped]IPRGLSEAKPATPEIQEIVDKVKPQLEEKTGETYGKLEAVQYKTQVLAREGRQDWVLSTNYYIKVRAGDNKYMHLKVFNGPWVPFPHQQLADRVLTGYQVDKNKDDELTGF
notes: Affimer - human IgG1 Fc - Affimer; four Affimers in the Fc dimer

Biological target: T1, huPD-L1-Fc (R&D Systems) (human, UniProt Q9NZQ7 part only)
T1 construct: Bought from R&D Systems; also called hPDL1-Fc; human PD-L1 Fc antigen
T1 sequence (Q9NZQ7 19-239 limits assumed): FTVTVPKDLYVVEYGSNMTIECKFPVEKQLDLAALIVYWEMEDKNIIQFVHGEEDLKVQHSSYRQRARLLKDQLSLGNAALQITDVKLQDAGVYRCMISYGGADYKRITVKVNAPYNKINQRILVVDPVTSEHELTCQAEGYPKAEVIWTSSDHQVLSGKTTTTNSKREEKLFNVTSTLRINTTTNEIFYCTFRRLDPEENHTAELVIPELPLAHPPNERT
Experiment: Biacore single cycle kinetics, 1:1 binding model

B1 and B2 are within 1.5-fold of each other in Kd: 0.0315 nM for the first, 0.0362 nM for the second.

B3 showed a Kd of 0.0257 nM.
